Test results taken from PubChem BioAssay AID1347165 (National Center for Advancing Translational Sciences (NCATS), 2019).
The whole screen tested about 220,000 compounds, of which about 5,700 (2.6%) were called active. This list was built around the results that the source calls inconclusive (neither active nor inactive); the mix of calls is not that of the screen. Calls follow the shape of the dose curve; as a rule, active = well fitted inhibition curve with a large enough effect; inconclusive = small, poorly fitted or top-dose-only effect; inactive = no such curve, though single readings can be large or run the other way. Where the call is inconclusive, the potency comes from a doubtful curve fit.

Each compound was assayed against Lysine-specific demethylase 5B (Homo sapiens) (UniProt Q9UGL1) (assay: Primary screen for KDM5B Histone Demethylases FDH-coupled qHTS). Conditions: FDH-coupled NADH fluorescence (FDH is formaldehyde dehydrogenase); activity change, negative = inhibition: at 57.7 µM (top of the series) unless noted.
Chain of UniProt Q9UGL1 (Q9UGL1 whole entry, looked up): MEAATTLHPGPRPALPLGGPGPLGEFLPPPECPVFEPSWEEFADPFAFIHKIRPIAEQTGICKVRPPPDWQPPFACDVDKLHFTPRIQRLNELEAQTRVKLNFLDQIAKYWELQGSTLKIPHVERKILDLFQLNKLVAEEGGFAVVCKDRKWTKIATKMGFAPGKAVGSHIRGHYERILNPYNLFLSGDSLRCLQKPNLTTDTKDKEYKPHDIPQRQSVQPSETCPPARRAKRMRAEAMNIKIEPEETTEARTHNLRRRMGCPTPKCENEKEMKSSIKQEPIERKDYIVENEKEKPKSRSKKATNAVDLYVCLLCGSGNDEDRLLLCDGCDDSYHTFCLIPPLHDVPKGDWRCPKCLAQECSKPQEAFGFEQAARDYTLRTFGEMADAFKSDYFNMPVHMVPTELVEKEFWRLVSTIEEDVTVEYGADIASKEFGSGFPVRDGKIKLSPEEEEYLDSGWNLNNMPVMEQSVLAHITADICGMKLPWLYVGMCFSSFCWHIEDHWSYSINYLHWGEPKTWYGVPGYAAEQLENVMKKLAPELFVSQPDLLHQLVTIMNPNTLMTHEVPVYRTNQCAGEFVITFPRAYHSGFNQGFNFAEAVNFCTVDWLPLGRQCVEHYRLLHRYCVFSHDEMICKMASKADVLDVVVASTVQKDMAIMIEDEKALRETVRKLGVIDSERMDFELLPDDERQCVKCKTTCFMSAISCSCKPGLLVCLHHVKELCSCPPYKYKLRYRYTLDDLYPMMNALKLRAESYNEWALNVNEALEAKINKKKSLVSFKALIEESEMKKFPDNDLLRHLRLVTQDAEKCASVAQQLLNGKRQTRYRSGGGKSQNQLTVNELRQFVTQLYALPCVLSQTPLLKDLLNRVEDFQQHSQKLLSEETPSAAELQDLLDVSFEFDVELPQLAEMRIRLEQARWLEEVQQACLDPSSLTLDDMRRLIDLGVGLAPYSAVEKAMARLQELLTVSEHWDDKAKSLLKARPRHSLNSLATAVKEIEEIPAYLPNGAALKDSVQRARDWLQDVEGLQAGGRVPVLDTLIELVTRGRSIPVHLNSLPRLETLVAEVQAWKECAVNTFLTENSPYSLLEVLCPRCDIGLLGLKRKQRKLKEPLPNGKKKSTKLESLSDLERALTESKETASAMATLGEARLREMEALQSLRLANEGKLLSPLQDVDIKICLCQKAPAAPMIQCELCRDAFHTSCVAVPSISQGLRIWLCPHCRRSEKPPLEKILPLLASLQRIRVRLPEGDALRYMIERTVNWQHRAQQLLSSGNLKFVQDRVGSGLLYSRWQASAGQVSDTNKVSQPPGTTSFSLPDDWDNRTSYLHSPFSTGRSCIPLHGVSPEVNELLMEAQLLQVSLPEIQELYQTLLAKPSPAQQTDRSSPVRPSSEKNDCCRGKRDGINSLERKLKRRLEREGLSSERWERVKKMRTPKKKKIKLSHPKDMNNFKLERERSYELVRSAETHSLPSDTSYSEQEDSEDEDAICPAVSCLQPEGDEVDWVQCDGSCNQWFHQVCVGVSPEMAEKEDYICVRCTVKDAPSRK
Summary of the method: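 Here, H3K4me3 peptide (12.5 µM in substrate mix) is demethylated by KDM5BΔAP, 200 nM final, after 10 min compound exposure. Formaldehyde product is coupled through FDH (0.25 U/mL in mix) to NADH fluorescence; 30-min ΔRFU feeds dose-response curves.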
Also: nearly all actives have a fitted effect of over 70% in size.
For activity change, negative = inhibition in this document: 0% is about no effect.
Potency is read from the fitted curve at half-maximal effect; tags tell the direction and shape of the fitted curve.

**Q.** `c1cncc(COc2cc3c(cn2)NCCN(CC2CCCCC2)C3)c1` was tested. Which Potency did it give?
**A.** active: 25.1 µM

**Q.** `Cc1nn(-c2ccc(C(C)C)cc2)c(C)c1[C@@H]1C=C[C@@H](NCc2ccccc2)C1` was tested. Which Potency did it give?
**A.** inconclusive: 31.6 µM [inhibitor, single point]

**Q.** `CN(Cc1ccc2c(c1)OCO2)C(=O)c1cccc(OCc2ccccc2)c1` was tested. Which Potency did it give?
**A.** inactive

**Q.** How did the Potency turn out when `CC(C)c1ccc(CNc2nc(-c3ccco3)nn2S(=O)(=O)c2ccc(F)cc2)cc1` was run?
**A.** inconclusive: 25.1 µM [inhibitor, partial curve, poor fit]

**Q.** Which Potency does the source give for `COc1ccc(OC)c(C2C=C(C(=O)O)Nc3c(C(=O)Nc4ccccc4OC)cnn32)c1` (configuration not stated) here?
**A.** inactive

**Q.** Which Potency does the source give for `Cc1c(-c2ccccc2)oc2c(C(=O)N3CCCN(Cc4ccc(F)cc4)CC3)cccc2c1=O` here?
**A.** inactive

**Q.** For `Cc1cccc(C(=O)Nc2cc3c(cc2SCc2ccco2)n(C)c(=O)n3C)c1`, which Potency is on record?
**A.** inconclusive: 20 µM [inhibitor, partial curve, poor fit]

**Q.** `Cc1c(Cl)cccc1NC(=O)C1CCN(c2nc3ccccc3[nH]2)CC1` was tested. Which activity change, negative = inhibition did it give?
**A.** inconclusive: -34.8% [inhibitor]

**Q.** Which Potency does the source give for `CCc1ccc(CNC(=O)c2cnc3c(C)cccn3c2=O)cc1` here?
**A.** inconclusive: 31.6 µM [inhibitor, partial curve, poor fit]

**Q.** With `Cc1ccc(S(=O)(=O)N2CCC(C(=O)N3CCC(CCc4ccc(O)cc4)CC3)CC2)c(C)c1` as the compound, how does the Potency read?
**A.** inactive

**Q.** With `Cc1cccc2[nH]cc(C3=CCN(C(=O)CCc4ccccc4)CC3)c12` as the compound, how does the Potency read?
**A.** inconclusive: 22.4 µM [inhibitor, single point]

**Q.** `CC(C)N1C[C@H](O)C[C@H]1c1nc(-c2cccc([N+](=O)[O-])c2)no1` was tested. Which Potency did it give?
**A.** inconclusive: 56.2 µM [inhibitor, single point]

**Q.** How did the Potency turn out when `Cc1ccc(Cn2c(=O)c3cccnc3n(CC(=O)Nc3cc(Cl)ccc3C)c2=O)cc1` was run?
**A.** inconclusive: 14.1 µM [inhibitor, partial curve, poor fit]

**Q.** How did the Potency turn out when `COc1cc(OC)c(NC2=NS(=O)(=O)C(c3ccc(C)c(C)c3)=C2C)cc1Cl` was run?
**A.** inactive

**Q.** For `COc1ccc(S(=O)(=O)N2CCc3nc4cc[nH]n4c(=O)c3C2)cc1Cl`, which Potency is on record?
**A.** active: 25.1 µM

**Q.** How did the Potency turn out when `O=C(CN1CCN(c2ccccn2)CC1)N1N=C(c2cc3ccccc3o2)CC1c1ccco1` (configuration not stated) was run?
**A.** inconclusive: 39.8 µM [inhibitor, single point]

**Q.** `Cc1c(Cl)cccc1NC(=O)Cn1c(=O)n(Cc2nc(-c3ccccc3)no2)c(=O)c2cc3c(cc21)OCO3` was tested. Which Potency did it give?
**A.** inconclusive: 14.1 µM [inhibitor, partial curve, poor fit]

**Q.** How did the Potency turn out when `COc1cc(C2Nc3ccccc3-c3nnc(SCc4ccc(C)cc4)nc3O2)cc(OC)c1O` (configuration not stated) was run?
**A.** inconclusive: 25.1 µM [inhibitor, partial curve, poor fit]

**Q.** With `Cc1cn2nc(C(=O)NCCc3ccccc3)cc2c(N2CCSCC2)n1` as the compound, how does the Potency read?
**A.** inconclusive: 15.8 µM [inhibitor, partial curve, poor fit]

**Q.** Which Potency does the source give for `Cc1ccc2cc(CN(CC(C)C)C(=O)c3ccco3)c(=O)[nH]c2c1` here?
**A.** inconclusive: 28.2 µM [inhibitor, single point]

**Q.** How did the Potency turn out when `O=C(CC1C(=O)NCCN1Cc1ccccc1)NCc1nc(C2CC2)no1` (configuration not stated) was run?
**A.** inconclusive: 15.8 µM [inhibitor, partial curve]

**Q.** With `O=C(c1ccc(-n2cccn2)cc1)N1CCCC1c1ccc2c(c1)OCCO2` (configuration not stated) as the compound, how does the Potency read?
**A.** inactive

**Q.** Which Potency does the source give for `Cc1ccc(C)c(NC(NC(=O)c2ccc(Br)cc2)C(Cl)(Cl)Cl)c1` (configuration not stated) here?
**A.** inactive

**Q.** `O=C(CCc1ccccc1)N1CCc2nc3cc(-c4ccccc4)[nH]n3c(=O)c2C1` was tested. Which Potency did it give?
**A.** inconclusive: 5.62 µM [inhibitor, partial curve]

**Q.** How did the Potency turn out when `Cc1cc(C)cc(NC(=O)CSc2nc3sc4c(c3c(=O)[nH]2)CCCC4)c1` was run?
**A.** inconclusive: 22.4 µM [inhibitor, single point]

**Q.** For `CC(=O)c1c(C)[nH]c(C(=O)C(C)OC(=O)c2ccccc2)c1C` (configuration not stated), which Potency is on record?
**A.** inactive

**Q.** How did the Potency turn out when `COc1ccc(-c2cn3c(n2)CO[C@@H](CNS(C)(=O)=O)C3)cc1` was run?
**A.** inconclusive: 35.5 µM [inhibitor, single point]

**Q.** Which Potency does the source give for `Cc1ccc(NS(=O)(=O)c2ccc(Cl)cc2)cc1S(=O)(=O)N(C)C` here?
**A.** inactive

**Q.** How did the Potency turn out when `Cc1ccccc1-c1nnc(-c2ccc(C(=O)NCC3CCCO3)cc2)o1` (configuration not stated) was run?
**A.** inconclusive: 22.4 µM [inhibitor, partial curve, poor fit]

**Q.** With `Cc1cc(NC(=O)c2cccn2-c2nnc(N3CCCCC3)s2)ccc1Br` as the compound, how does the Potency read?
**A.** inconclusive: 31.6 µM [inhibitor, partial curve, poor fit]

**Q.** For `CCOC(=O)C1=C(C)N(C2CC2)C(=O)NC1c1ccccc1OC(F)F` (configuration not stated), which Potency is on record?
**A.** inactive

**Q.** How did the Potency turn out when `CCN1CCN(c2oc(/C=C/c3cc(OC)c(OC)c(OC)c3)nc2C#N)CC1` was run?
**A.** inconclusive: 0.562 µM [inhibitor, full curve, poor fit]

**Q.** With `COCCn1c(SCc2nc(-c3ccc(Br)cc3)no2)nc2ccsc2c1=O` as the compound, how does the Potency read?
**A.** inactive

**Q.** `O=C(c1cc(CC2(NCc3ccccc3F)COC2)no1)N1CCCCC1` was tested. Which Potency did it give?
**A.** inactive

**Q.** Which Potency does the source give for `Cc1ccc(C(=O)Nc2ccc3oc(-c4ccccc4C)nc3c2)cc1` here?
**A.** inconclusive: 25.1 µM [inhibitor, partial curve, poor fit]

**Q.** Which Potency does the source give for `CCCCNC(=O)c1ccc2c(c1)NC(=O)C(CS(=O)(=O)Cc1ccc(C)cc1)N2` (configuration not stated) here?
**A.** inconclusive: 15.8 µM [inhibitor, partial curve, poor fit]

**Q.** For `CC(=O)N1CCc2c(sc3c2c(=O)n(-c2ccc(C)cc2)c(=O)n3Cc2ccccc2C)C1`, which Potency is on record?
**A.** inconclusive: 14.1 µM [inhibitor, partial curve, poor fit]

**Q.** For `CCOC(=O)CCNC(=O)N1CCC(Oc2ncccc2C(=O)N2CCCCC2)C1` (configuration not stated), which Potency is on record?
**A.** inactive

**Q.** Which Potency does the source give for `Cc1cc(C(=O)NCc2ccccc2Cl)c2c(C)nn(-c3cccc(F)c3)c2n1` here?
**A.** inconclusive: 39.8 µM [inhibitor, partial curve, poor fit]

**Q.** For `OCCCc1nc2ccccc2s1`, which Potency is on record?
**A.** inactive

**Q.** With `CC(=O)c1ccc(NC(=O)C(C)Oc2cccc(F)c2)cc1` (configuration not stated) as the compound, how does the Potency read?
**A.** inactive

**Q.** For `CC(C)N1C[C@H](O)C[C@H]1c1nnc2n1CCN(C(=O)CC1CCCCC1)C2`, which Potency is on record?
**A.** inactive

**Q.** How did the Potency turn out when `CCCN(C(=O)Nc1cn(CC(C)C)c(=O)c2ccccc12)c1ccc(F)cc1` was run?
**A.** inconclusive: 25.1 µM [inhibitor, partial curve, poor fit]

**Q.** `CCc1cccc(C)c1NC(=O)CSc1nc2c(c(=O)[nH]1)CCC2` was tested. Which Potency did it give?
**A.** inconclusive: 5.01 µM [inhibitor, partial curve, poor fit]

**Q.** For `O=C(/C(=C/c1ccc(O)cc1)c1nc2ccccc2s1)c1ccccc1`, which Potency is on record?
**A.** inconclusive: 39.8 µM [inhibitor, partial curve, poor fit]

**Q.** Which Potency does the source give for `COc1ccc(CNC(=O)C[C@@H]2C[C@@H](C(C)C)[C@H](CNC(C)=O)C=C2C)cc1` here?
**A.** active: 35.5 µM

**Q.** With `Cc1cc(C)cc(OCC(=O)N2CCC(c3nc4ccccc4s3)CC2)c1` as the compound, how does the Potency read?
**A.** inactive

**Q.** For `COc1ccc(OC)c(/C=C(\C#N)C(=O)Nc2cc(C(F)(F)F)ccc2Cl)c1`, which Potency is on record?
**A.** inactive

**Q.** How did the Potency turn out when `COCCN1Cc2ccc(NCC(C)C)nc2C(C)(C(=O)Nc2ccc(OC)cc2)C1` (configuration not stated) was run?
**A.** inconclusive: 31.6 µM [inhibitor, partial curve, poor fit]

**Q.** `COc1ccccc1/C=C1/C(=O)ON=C1C` was tested. Which Potency did it give?
**A.** inconclusive: 14.1 µM [inhibitor, partial curve, poor fit]

**Q.** With `COCCN1CCNc2cc(Nc3ccc(N4CCOCC4)cc3)ncc2C1` as the compound, how does the Potency read?
**A.** inconclusive: 39.8 µM [inhibitor, partial curve, poor fit]

**Q.** For `COCCN1C(=O)c2ccccc2C(C(=O)Nc2nc3ccccc3[nH]2)C12CCCC2` (configuration not stated), which Potency is on record?
**A.** inconclusive: 20 µM [inhibitor, partial curve]

**Q.** With `O=CN1CCN(C(C(=O)O)c2c[nH]c3cc(Br)ccc23)CC1` (configuration not stated) as the compound, how does the Potency read?
**A.** inactive

**Q.** Which Potency does the source give for `Cc1cc(=O)[nH]c(-n2nc(C)cc2NC(=O)c2cc(Br)ccc2Cl)n1` here?
**A.** inactive

**Q.** How did the Potency turn out when `CCOc1cc(/C=C(\C#N)C(=O)OC)ccc1OCc1cccc(C(F)(F)F)c1` was run?
**A.** inactive

**Q.** For `Cc1ccc([N+](=O)[O-])c(OCc2ncc(Cl)n2C)c1`, which Potency is on record?
**A.** inconclusive: 25.1 µM [inhibitor, partial curve, poor fit]

**Q.** How did the Potency turn out when `COc1cc(Cl)ccc1C(=O)NCc1c(C)ncc2c1CCNC2` was run?
**A.** inconclusive: 10 µM [inhibitor, partial curve]

**Q.** For `COC(=O)c1cc(OC)c(OC)cc1NC(=O)CCNC(=O)c1ccco1`, which Potency is on record?
**A.** inconclusive: 39.8 µM [inhibitor, single point]

**Q.** How did the Potency turn out when `CCC1Oc2ccc(NC(=O)c3cccc(OC)c3)cc2CN(Cc2ccccc2)C1=O` (configuration not stated) was run?
**A.** inconclusive: 31.6 µM [inhibitor, partial curve, poor fit]

**Q.** With `O=C(c1ccc(-c2ccco2)cc1)N1CCOc2ccc(CN3CCN(c4ccccn4)CC3)cc2C1` as the compound, how does the Potency read?
**A.** active: 28.2 µM

**Q.** With `COc1ccc(S(N)(=O)=O)cc1C(=O)NCC(C)(C)N1CCCCC1` as the compound, how does the Potency read?
**A.** inactive

**Q.** Which Potency does the source give for `COc1ccc(Cl)cc1NC(=O)c1cc(S(=O)(=O)N(C)Cc2ccccc2)ccc1F` here?
**A.** inconclusive: 39.8 µM [inhibitor, single point]

**Q.** For `O=C(Nc1cccc2[nH]ccc12)C(=O)NC(c1ccccc1)c1ccccc1`, which Potency is on record?
**A.** inactive

**Q.** For `Cc1ccc(OCC(=O)N2CCC(N3CC4CC(C3)[C@H]3CCCC(=O)N3C4)CC2)cc1` (some centres not stated), which Potency is on record?
**A.** inconclusive: 20 µM [inhibitor, partial curve, poor fit]

**Q.** `Cc1cc(C)cc(C(=O)N2CCCC3(C2)NC(=O)N(Cc2ccccc2)C3=O)c1` (configuration not stated) was tested. Which Potency did it give?
**A.** inactive

**Q.** How did the Potency turn out when `O=C(Cn1ccc2ccccc2c1=O)N1CCCOC(Cn2cccn2)C1` (configuration not stated) was run?
**A.** inconclusive: 28.2 µM [inhibitor, partial curve, poor fit]

**Q.** For `CCn1cc(S(=O)(=O)N2CCCN(Cc3ccncc3)C(c3ccccc3)CC(=O)NCC2)cn1` (configuration not stated), which Potency is on record?
**A.** inconclusive: 22.4 µM [inhibitor, single point]
